Some of the results follow.
Assays:
Assay in all cases: glycan array binding signal (z-score within array); higher = stronger binding
Settings in all cases: glycan notation: IUPAC condensed, linker removed
Neu5Ac(a2-3)Gal(b1-4)Glc = biological target: Neu5Ac(a2-3)Gal(b1-4)Glc
Method in brief: (§1)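 Glycan array data came from 3228 arrays in the Consortium for Functional Glycomics database, and only arrays with an available protein sequence were kept. Glycan names were put into IUPAC-condensed notation, and columns mapping to the same glycan were averaged. The binding signal is a within-array Z-score, averaged across arrays of one protein sequence run at different concentrations or buffers and across linkers. A negative Z-score can be read as non-binding.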

[1] = biological target: Neu5Ac(a2-3)Gal(b1-4)GlcNAc
Method in brief: as §1

[2] = biological target: Neu5Ac(a2-3)Gal(b1-4)GlcNAc(b1-2)Man
Method in brief: as §1

[3] = biological target: Neu5Ac(a2-3)Gal(b1-4)GlcNAc(b1-2)Man(a1-3)[GlcNAc(b1-4)][Neu5Ac(a2-3)Gal(b1-4)GlcNAc(b1-2)Man(a1-6)]Man(b1-4)GlcNAc(b1-4)GlcNAc
Method in brief: as §1

[4] = biological target: Neu5Ac(a2-3)Gal(b1-4)GlcNAc(b1-2)Man(a1-3)[Neu5Ac(a2-3)Gal(b1-4)GlcNAc(b1-2)Man(a1-6)]Man(b1-4)GlcNAc(b1-4)GlcNAc
Method in brief: as §1

[5] = biological target: Neu5Ac(a2-3)Gal(b1-4)GlcNAc(b1-2)Man(a1-3)[Neu5Ac(a2-3)Gal(b1-4)GlcNAc(b1-2)Man(a1-6)]Man(b1-4)GlcNAc(b1-4)[Fuc(a1-6)]GlcNAc
Method in brief: as §1

[6] = biological target: Neu5Ac(a2-3)Gal(b1-4)GlcNAc(b1-2)Man(a1-3)[Neu5Ac(a2-6)Gal(b1-4)GlcNAc(b1-2)Man(a1-6)]Man(b1-4)GlcNAc(b1-4)GlcNAc
Method in brief: as §1

[7] = biological target: Neu5Ac(a2-3)Gal(b1-4)GlcNAc(b1-2)[Neu5Ac(a2-3)Gal(b1-4)GlcNAc(b1-4)]Man(a1-3)[GlcNAc(b1-4)][Neu5Ac(a2-3)Gal(b1-4)GlcNAc(b1-2)[Neu5Ac(a2-3)Gal(b1-4)GlcNAc(b1-6)]Man(a1-6)]Man(b1-4)GlcNAc(b1-4)GlcNAc
Method in brief: as §1

[8] = biological target: Neu5Ac(a2-3)Gal(b1-4)GlcNAc(b1-2)[Neu5Ac(a2-3)Gal(b1-4)GlcNAc(b1-4)]Man(a1-3)[GlcNAc(b1-4)][Neu5Ac(a2-3)Gal(b1-4)GlcNAc(b1-4)Man(a1-6)]Man(b1-4)GlcNAc(b1-4)GlcNAc
Method in brief: as §1

[9] = biological target: Neu5Ac(a2-3)Gal(b1-4)GlcNAc(b1-2)[Neu5Ac(a2-3)Gal(b1-4)GlcNAc(b1-6)]Man(a1-6)[Neu5Ac(a2-3)Gal(b1-4)GlcNAc(b1-2)Man(a1-3)]Man(b1-4)GlcNAc(b1-4)GlcNAc
Method in brief: as §1

[10] = biological target: Neu5Ac(a2-3)Gal(b1-4)GlcNAc(b1-2)[Neu5Ac(a2-3)Gal(b1-4)GlcNAc(b1-6)]Man(a1-6)[Neu5Ac(a2-3)Gal(b1-4)GlcNAc(b1-2)Man(a1-3)][GlcNAc(b1-4)]Man(b1-4)GlcNAc(b1-4)GlcNAc
Method in brief: as §1

[11] = biological target: Neu5Ac(a2-3)Gal(b1-4)GlcNAc(b1-3)Gal
Method in brief: as §1

[12] = biological target: Neu5Ac(a2-3)Gal(b1-4)GlcNAc(b1-3)Gal(b1-3)GlcNAc
Method in brief: as §1

[13] = biological target: Neu5Ac(a2-3)Gal(b1-4)GlcNAc(b1-3)Gal(b1-4)GlcNAc
Method in brief: as §1

[14] = biological target: Neu5Ac(a2-3)Gal(b1-4)GlcNAc(b1-3)Gal(b1-4)GlcNAc(b1-2)Man(a1-3)[Neu5Ac(a2-3)Gal(b1-4)GlcNAc(b1-3)Gal(b1-4)GlcNAc(b1-2)Man(a1-6)]Man(b1-4)GlcNAc(b1-4)GlcNAc
Method in brief: as §1

[15] = biological target: Neu5Ac(a2-3)Gal(b1-4)GlcNAc(b1-3)Gal(b1-4)GlcNAc(b1-3)Gal(b1-4)GlcNAc
Method in brief: as §1

[16] = biological target: Neu5Ac(a2-3)Gal(b1-4)GlcNAc(b1-3)Gal(b1-4)GlcNAc(b1-3)Gal(b1-4)GlcNAc(b1-2)Man(a1-3)[Neu5Ac(a2-3)Gal(b1-4)GlcNAc(b1-3)Gal(b1-4)GlcNAc(b1-3)Gal(b1-4)GlcNAc(b1-2)Man(a1-6)]GalNAc
Method in brief: as §1

[17] = biological target: Neu5Ac(a2-3)Gal(b1-4)GlcNAc(b1-3)Gal(b1-4)GlcNAc(b1-3)GalNAc
Method in brief: as §1

[18] = biological target: Neu5Ac(a2-3)Gal(b1-4)GlcNAc(b1-3)Gal(b1-4)GlcNAc(b1-3)[Neu5Ac(a2-3)Gal(b1-4)GlcNAc(b1-3)Gal(b1-4)GlcNAc(b1-6)]GalNAc
Method in brief: as §1

[19] = biological target: Neu5Ac(a2-3)Gal(b1-4)GlcNAc(b1-3)Gal(b1-4)GlcNAc(b1-6)[Gal(b1-3)]GalNAc
Method in brief: as §1

[20] = biological target: Neu5Ac(a2-3)Gal(b1-4)GlcNAc(b1-3)Gal(b1-4)[Fuc(a1-3)]GlcNAc
Method in brief: as §1

[21] = biological target: Neu5Ac(a2-3)Gal(b1-4)GlcNAc(b1-3)GalNAc
Method in brief: as §1

[22] = biological target: Neu5Ac(a2-3)Gal(b1-4)GlcNAc(b1-3)[Neu5Ac(a2-3)Gal(b1-4)GlcNAc(b1-6)]GalNAc
Method in brief: as §1

[23] = biological target: Neu5Ac(a2-3)Gal(b1-4)GlcNAc(b1-6)GalNAc
Method in brief: as §1

[24] = biological target: Neu5Ac(a2-3)Gal(b1-4)GlcNAc(b1-6)[Gal(b1-3)]GalNAc
Method in brief: as §1

[25] = biological target: Neu5Ac(a2-3)Gal(b1-4)GlcNAc(b1-6)[Neu5Ac(a2-3)Gal(b1-3)]GalNAc
Method in brief: as §1

[26] = biological target: Neu5Ac(a2-3)Gal(b1-4)GlcNAc6S
Method in brief: as §1

[27] = biological target: Neu5Ac(a2-3)Gal(b1-4)[Fuc(a1-3)]GlcNAc
Method in brief: as §1

[28] = biological target: Neu5Ac(a2-3)Gal(b1-4)[Fuc(a1-3)]GlcNAc(b1-2)Man
Method in brief: as §1

[29] = biological target: Neu5Ac(a2-3)Gal(b1-4)[Fuc(a1-3)]GlcNAc(b1-3)Gal
Method in brief: as §1

[30] = biological target: Neu5Ac(a2-3)Gal(b1-4)[Fuc(a1-3)]GlcNAc(b1-3)Gal(b1-4)GlcNAc
Method in brief: as §1

[31] = biological target: Neu5Ac(a2-3)Gal(b1-4)[Fuc(a1-3)]GlcNAc(b1-3)Gal(b1-4)[Fuc(a1-3)]GlcNAc(b1-3)Gal(b1-4)[Fuc(a1-3)]GlcNAc
Method in brief: as §1

[32] = biological target: Neu5Ac(a2-3)Gal(b1-4)[Fuc(a1-3)]GlcNAc(b1-3)GalNAc
Method in brief: as §1

[33] = biological target: Neu5Ac(a2-3)Gal(b1-4)[Fuc(a1-3)]GlcNAc(b1-6)[Gal(b1-3)]GalNAc
Method in brief: as §1

[34] = biological target: Neu5Ac(a2-3)Gal(b1-4)[Fuc(a1-3)]GlcNAc(b1-6)[Neu5Ac(a2-3)Gal(b1-3)]GalNAc
Method in brief: as §1

[35] = biological target: Neu5Ac(a2-3)Gal(b1-4)[Fuc(a1-3)]GlcNAc6S
Method in brief: as §1

[36] = biological target: Neu5Ac(a2-3)Gal6S(b1-4)GlcNAc
Method in brief: as §1

[37] = biological target: Neu5Ac(a2-3)Gal6S(b1-4)[Fuc(a1-3)]GlcNAc
Method in brief: as §1

B1: Clec2 (Mus musculus), Q9JL99 (protein)
chain: MQDEDGYITLNIKPRKQALSSAEPASSWWRVMALVLLISSMGLVVGLVALGIMSVTQQKYLLAEKENLSATLQQLAKKFCQELIRQSEIKTKSTFEHKCSPCATKWRYHGDSCYGFFRRNLTWEESKQYCTEQNATLVKTASQSTLDYIAERITSVRWIGLSRQNSKKDWMWEDSSVLRKNGINLSGNTEENMNCAYLHNGKIHPASCKERHYLICERNAGMTRVDQLL
Q: How did the “glycan array binding signal (z-score)” value (Neu5Ac(a2-3)Gal(b1-4)Glc) turn out when B1 was run?
A: -0.067

Q: What about the “glycan array binding signal (z-score)” value [1] of the same binder?
A: -0.157

Q: And the “glycan array binding signal (z-score)” value [2]?
A: 2.36

Q: What about the “glycan array binding signal (z-score)” value [3] of the same binder?
A: -0.632

Q: And the “glycan array binding signal (z-score)” value [4]?
A: -0.748

Q: And the “glycan array binding signal (z-score)” value [5]?
A: -0.891

Q: And the “glycan array binding signal (z-score)” value [6]?
A: -0.969

Q: And the “glycan array binding signal (z-score)” value [7]?
A: -0.711

Q: And the “glycan array binding signal (z-score)” value [8]?
A: -0.615

Q: What about the “glycan array binding signal (z-score)” value [9] of the same binder?
A: 0.019

Q: And the “glycan array binding signal (z-score)” value [10]?
A: -0.558

Q: And the “glycan array binding signal (z-score)” value [11]?
A: -0.601

Q: And the “glycan array binding signal (z-score)” value [12]?
A: -0.814

Q: What about the “glycan array binding signal (z-score)” value [13] of the same binder?
A: -0.274

Q: And the “glycan array binding signal (z-score)” value [14]?
A: -0.452

Q: What about the “glycan array binding signal (z-score)” value [15] of the same binder?
A: -0.786

Q: What about the “glycan array binding signal (z-score)” value [16] of the same binder?
A: 2.18

Q: What about the “glycan array binding signal (z-score)” value [17] of the same binder?
A: -0.803

Q: What about the “glycan array binding signal (z-score)” value [18] of the same binder?
A: 0.14

Q: And the “glycan array binding signal (z-score)” value [19]?
A: -0.037

Q: And the “glycan array binding signal (z-score)” value [20]?
A: -0.238

Q: And the “glycan array binding signal (z-score)” value [21]?
A: -0.322

Q: What about the “glycan array binding signal (z-score)” value [22] of the same binder?
A: -0.342

Q: What about the “glycan array binding signal (z-score)” value [23] of the same binder?
A: -0.173

Q: What about the “glycan array binding signal (z-score)” value [24] of the same binder?
A: 0.119

Q: And the “glycan array binding signal (z-score)” value [25]?
A: -0.594

Q: What about the “glycan array binding signal (z-score)” value [26] of the same binder?
A: 2.54

Q: And the “glycan array binding signal (z-score)” value [27]?
A: -0.527

Q: And the “glycan array binding signal (z-score)” value [28]?
A: -0.248

Q: What about the “glycan array binding signal (z-score)” value [29] of the same binder?
A: -0.649

Q: What about the “glycan array binding signal (z-score)” value [30] of the same binder?
A: -0.224

Q: What about the “glycan array binding signal (z-score)” value [31] of the same binder?
A: -0.521

Q: What about the “glycan array binding signal (z-score)” value [32] of the same binder?
A: 0.837

Q: And the “glycan array binding signal (z-score)” value [33]?
A: -0.571

Q: And the “glycan array binding signal (z-score)” value [34]?
A: 0.101

Q: And the “glycan array binding signal (z-score)” value [35]?
A: 1.83

Q: And the “glycan array binding signal (z-score)” value [36]?
A: 0.844

Q: And the “glycan array binding signal (z-score)” value [37]?
A: -0.33

From the supplement of paper PMC8728848
